First the molecules themselves.
B1: TPR 5TU (parent)
chain: GGAUCUUCUCGAUCUAACAAAAAAGACAAAUCUGCCACAAAGCUUGAGAGCAUCUUCGGAUGCAGAGGCGGCAGCCUUCGGUGGCGCGAUAGCGCCAACGUUCUCAACUAUGACACGCAAAACGCGUGCUCCGUUGAAUGGAGUUUAUCAUG

Variants at the background level are over-represented here. Where only a bound is given, the exact number is not on record here.

Variants of B1 are the subject of this series. Briefly: polymerase ribozyme fitness, log enrichment relative to wild type (log ratio); higher = more active; in vitro selection for triplet polymerase activity. An outline of the steps:
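To select mutant libraries of each subunit of a heterodimeric triplet polymerase ribozyme, built by PCR and transcribed, each was annealed with a biotinylated primer, partner subunit and triplets, then incubated frozen at −7 °C. Extended constructs were gel-excised, captured on streptavidin beads and amplified by RT-PCR, in one round carried out in triplicate. Illumina sequencing of input and output libraries kept genotypes with ≥10 input reads and ≥1 read per output. Fitness is the base-2 logarithm of genotype enrichment relative to wild-type enrichment, from inverse-variance-weighted replicate averages.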
As for GGAUCUUCUCCAUCUAACAAAAAAGACAAAUCUGCCACAAAGCUUGAGAGCAUCUUCGGGUGCAGAGGCGGCAGCCUUCGGUGGCGCGAUAGCGCGAACGUUCUCAACUAAGACACGCAAAACGCGUGCUCCGUUGAAUGGAGUUUAUCAUG [G11C A60G C96G U111A], the “polymerase ribozyme fitness (log ratio)” value is ≤ -4.2.

For the variant GGAUCUUCUCCAUCUAACAAAAAAGACAAAUCUACCACAAAGCUUGAGAGCAUCUUCUGAUGCAGAGGCGGCAGCCUUCGGUGGCGCGAUAGCACCAACGUUCUCAACUAUGACACGCAAAACGCGUGCUCCGUUGAAUGGAGGUUAUCAUG [G11C G34A G58U G94A U144G], the “polymerase ribozyme fitness (log ratio)” value is ≤ -4.2.

In the case of GGAUCUUCUCCAUCUAACAAAAAAGACAAAUCUGCCACAAAGCUUAAGAGCAUAUUCGGAUGCAGAGGCGGCAGCCUUCGGUGGCACGAUAGCGCCAACGUUCUCAACUAUGACACGCAAAACGCGUGCUCCGUUGAAUGGAGUUUAUCAUG [G11C G46A C54A G86A], the “polymerase ribozyme fitness (log ratio)” value is ≤ -4.2.

Turning to GGAUCUUCUCCAUCUAACAAAAAAGGGAAAUCUGCCUCAAAGCUUGAGAGCAUCUUCGGAUGCAGAGGCGGCAGCCUUCGGUAGCGCGAUAGCGCCAACGUUAUCAACUAUGACACGCAAAACGCGUGCUCCGUUGAAUGGAGUUUACCAUG [G11C A26G C27G A37U G83A C103A U148C], the “polymerase ribozyme fitness (log ratio)” value was ≤ -4.2.

As for GGAUCUUCUCCAUCUAACAAAAAAGACGAAUCUGCCACAAAGCUUGAGAGCAUCUACGGAUGCAGAGGCGGCAGCCAUCGGUGGCGAGAUAGCGCCAACGUUCUCAACUAUGACACGCAAAUCGCGUGCUCCGUUGAAUGGAGUUUAUCAUG [G11C A28G U56A U77A C87A A122U], the “polymerase ribozyme fitness (log ratio)” value is ≤ -4.2.

In the case of GGAUCUUCUCCAUCUAACAAAAAUGACAAAUCUGCCACAAAGCGUGAGAGCAACUUCGGAUGCAGAGGCGGCAGGCUUCGGUGGCGCGAUAGCACCAACGUUCUCAACUAUGACACGCAAAACGCGUGCUCCGUUGAAAGGAGUUUAUCAUG [G11C A24U U44G U53A C75G G94A U139A], the “polymerase ribozyme fitness (log ratio)” value is ≤ -4.2.

In the case of GGAUCUUCUCUAUCUAACCAAAAAGACAAAUCUGCCACAAAGCUUGAGAGCAUCUUCGGAUGCAGAGGCUGCAGCCUUCGGUGGCGCGAUAGCGCCAACGUACUCAACUAUGACACGCAAAACGCGUGCUCCGUUGAAUGGAGUUUAUCAUG [G11U A19C G70U U102A], the “polymerase ribozyme fitness (log ratio)” value is ≤ -4.2.

Consider GGAUCUUCUCCAUCUAACAAAAAAGACAAAUCUGUCACAAAGCUUGAGAGCCUCUUCGGGUGCAGAGGCGGCAGCCUUCGGUGGCGCGAUAGCGCCAACGUUCUCAACUAUGACACGCAAAACGCGUGCUCCGUUGAAUGGAGUUUAUCAUG [G11C C35U A52C A60G], for which the “polymerase ribozyme fitness (log ratio)” value is ≤ -4.2.

With GGAUCUUCUCCAUCUAACAAAAAAGACAAAUCUGCCACAAAGCUUGAGAGCAUCUUCGGAUGCAGAGGCGGCAACCUUCGGUGGCGCGAUAGCGCCAACGUGCUCAACUAUGACACGCAAAACGCGUGCUCUGUUGAAUGGAGUUUAUCAUG [G11C G74A U102G C132U], the “polymerase ribozyme fitness (log ratio)” value is ≤ -4.2.

With GGAUCUUCUCUAUCUAACAAAAAAGACAACUCUGCCACAAAGCUUGAGAGCAUCUUCGGAUGCAGUGGCGGCAGCCUUCGGUGGCGCGAUAGCGCCAACGUUCGCAACUAUGACACGCAAAACGCGUGCUCCGUUGAAUGGAGUUUAUCAUG [G11U A30C A66U U104G], the “polymerase ribozyme fitness (log ratio)” value is ≤ -4.2.

Turning to GGAUCUUCUCCAUCUAACAAAAAAGACAAAUCUGCCACAAAUCUUGAGAGCAUCGUCGGAUGCAGAGGCGGCAGCUUUCGGUGGCGCGAUAGCGCCAACGUUCUCAACUAUGACACGCAAAACGCGUGCUCCGUUGAAUGGAGUUUAUCAUG [G11C G42U U55G C76U], the “polymerase ribozyme fitness (log ratio)” value is ≤ -4.2.

Take GGAUCUUCUCUAUCUACCAAAAAAGACAAAUCUACCACAAAGCUUGAGAGCAUCUUCGGAUGCAGAGGCGGCAGCCUUCGGUGGAGCGAUAGCGCCAACGUUCUCAACUAUGACACGCAAAACGCGUGCUCCGUUGAAUGGAGUUUAUCAUG [G11U A17C G34A C85A]: the “polymerase ribozyme fitness (log ratio)” value is ≤ -4.2.

As for GGAUCUUCUCCAUCUAACAAAAAAGACAAAUCUGCCACAAAGCUUGAGAGCAUCUUCGGAUGCAGAGGCGGCAGCCUUCGGUGGCGCGAUAGCGCCAACGUUCUCAACUAUGAUACGCAAAACGCGUGCUCCGUUGAAUGUAGUUUAACAUG [G11C C114U G141U U148A], the “polymerase ribozyme fitness (log ratio)” value is ≤ -4.2.

Consider GGAUCUUCUCCAUCUAACAAAAAAGACAAAUCUGCCACAAAGCUUGAGAGCAUCUUCGGAUGCAGAGGCGGCAGCCUUCGGUGGCGCGAUAUCGCCAACGUUCUCAACUAUGACAAGCAAGACGCAUGCUCCGUUGAAUGGAGUUUAUGAUG [G11C G92U C116A A121G G126A C149G], for which the “polymerase ribozyme fitness (log ratio)” value was ≤ -4.2.

On to GGAUCUUCUCUAUCUAACAAAAAUGACAAAUCUGCCACAAAGCUUGAAAGCAUCUUCGGAAGCAGAGGCGGCAGCCUUCGGUGGCGCGAUAGGGACAACGUUCUCAACUAUGACACGCAAAACGCGUGCUCCGUUGAAUGGACUUUAUCAUG [G11U A24U G48A U61A C93G C95A G143C], for which the “polymerase ribozyme fitness (log ratio)” value was ≤ -4.2.

Take GGAUCUUCUCCAUUUAACAAAAAAGACAAAUCUGCCACAAAGCUUGAGAGCAACUUCGGAUGCAGAGGCGGCAGCCUUCGGUGGCGCGAUAGGGCCGACGUUCUCAACUAGGACACGCAAAACGCGUGCUCCGUUGAAUGGAGUUUAGCAUG [G11C C14U U53A C93G A97G U111G U148G]: the “polymerase ribozyme fitness (log ratio)” value was ≤ -4.2.

In the case of GGAUCUUCUCCAUUUAACAAAAAAGACAAAUCUGCCCCAAAGCUUGAGAGCAUCUUCGGAUGCAGAGGCGGCAGCCUUCGGUGGCGCGAUAGUGCCAACGUUCUCAACUAUGACACGCAAAACGCGUGCUCCGUUGAAUGGAGUUUAUCAUG [G11C C14U A37C C93U], the “polymerase ribozyme fitness (log ratio)” value is ≤ -4.2.

Consider GGAUCUUCUCCAUCUAACAAAAAAGACAAAUCUGCCACAAAGCUUGUGAGCAUCUUCGGAUGCAGAGGCGGCAGCCUUCGGUGGUGCGAUAGCGCCAACGUUCUCAACUAUGACACGCAAAACGCGUGCUCCGUUGAAUGGAGUUUAUCAUG [G11C A47U C85U], for which the “polymerase ribozyme fitness (log ratio)” value is -2.5.

As to GGAUCUUCUCUAUCUAACAAAUAAGACAAAUCUGCCAUAAAGCUUGAGAGCAUCUUCGGCUGCAGAGGCGGCAGCCUUCGGUGGAGCGAUAGCGCCAACGUUCUCAACUAUGACACGCAAAACGCGUGCUCCGUUGAAUCGAGUUUAGCAUG [G11U A22U C38U A60C C85A G140C U148G], the “polymerase ribozyme fitness (log ratio)” value is ≤ -4.2.

Source of the values: the RNAGym collection of RNA variant scans (doi:10.1073/pnas.2313332121).
